Reference: PubChem BioAssay AID1508624 (National Center for Advancing Translational Sciences (NCATS), 2021)
In all, about 48,000 compounds went through this assay and about 120 (0.25%) were called active. Not shown: some 4% with an inconclusive outcome. The call rests on the fitted dose curve; in most records, active means well fitted activation curve with a large enough effect; inconclusive means small, poorly fitted or top-dose-only effect, or another doubt; inactive means no such curve, though single readings can be large or run the other way. The list shows a part of the results.

Experiment: Primary qHTS for Identification of Small Molecule Activators of Huntingtin-Antisense Promoter Activity; further: nearly all actives have a fitted effect of over 55% in size
Details: HEK293 HTT-AS promoter firefly luciferase reporter, 24 h; series mostly up to 57.5 µM; activity change, positive = activation: at the top concentration
Method in brief: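 HEK293 cells carrying firefly luciferase reporters were seeded at 2,500 per well in Opti-MEM and cultured for 24 h. They were then treated with compounds at up to 57.5 uM final for 24 h at 37 degrees C before Dual-Glo luminescence readout.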

Activity change, positive = activation, inactive:
CCc1ccc(C(=O)c2cn(CC(=O)NCc3ccc(C)cc3)c3nc(C)ccc3c2=O)cc1 -20.6%, CCOC(=O)CCNC(=O)N1CCN(S(=O)(=O)c2ccc3c(ccn3C)c2)CC1 -9.7%, Cc1ccc(CNC(=O)Cn2c(-c3cccs3)cc3cc(Cl)ccc32)cc1 -20.9%, O=C(Nc1nc2c(F)cccc2s1)c1ccc2c(c1)OCCO2 -38.2%, Cc1ccc(CNC(=O)c2ccc3c(c2)NC(=O)C(CS(=O)(=O)Cc2cccc(F)c2)N3)cc1 (stereo not given) -25.9%, Cc1ccc(N2C(=O)C(CC(=O)Nc3ccc(F)cc3)N(Cc3ccc4c(c3)OCO4)C2=O)cc1 (stereo not given) -1.81%, CC(=O)c1ccc(NC(=O)c2cc3c(=O)oc4ccc(C)cc4c3s2)cc1 -14%, Cc1cccc(N2C(=O)C(CC(=O)Nc3cccc(F)c3)N(CCc3ccncc3)C2=O)c1 (stereo not given) -15.9%, Cc1ccc(C(=O)Nc2ccc(S(=O)(=O)N(Cc3ccccc3)c3ccccc3)cc2)cc1 -35.2%, COc1ccc(NC(=O)C2=CC(c3ccc4c(c3)OCO4)=NS(=O)(=O)N2C)cc1OC -21.3%, O=S(=O)(c1ccc(Cl)cc1)c1nc(-c2ccccc2F)oc1NCc1ccccc1 -5.79%, Cc1c(C(=O)NCc2ccc(Cl)cc2)sc2nc3n(c(=O)c12)CCC3 -7.52%, CN1CCN(CC(=O)N2c3ccccc3C(=O)Nc3cccnc32)CC1 -5.42% [at 6 µM, percent change from vehicle, -100% = no light], COc1ccc(-c2nc3n(n2)C(c2ccccc2)C(C(=O)Nc2cccnc2)=C(C)N3)cc1 (stereo not given) -16%, COCCNC(=O)CN1C(=O)CCn2nc(-c3cn(C)c4ccccc34)cc21 -9.03%, CCOC(=O)N1CCN(CCC(=O)Nc2cccc(F)c2)CC1 7.78% [at 11.5 µM, percent change from vehicle, -100% = no light], COc1cc([C@@H]2Nc3c(F)cccc3[C@@H]3C=CC[C@@H]32)cc(Br)c1OC -15.3%, Cc1c(C(=O)O)oc2c1-c1nn(Cc3ccccc3Cl)cc1CC2 -26.9%, CC(=O)N(CC(O)CO)c1c(I)c(C(=O)NCCO)c(I)c(C(=O)NCC(O)CO)c1I (stereo not given) 5.11%, COc1ccc2c(Sc3ccc(C)cc3)c(C(=O)NC(C)c3ccccc3)[nH]c2c1 (stereo not given) 9.1%, CCc1ccccc1NC(=O)c1ccc(F)c(S(=O)(=O)N2CCN(c3ccccc3OC)CC2)c1 -40.6%, O=C(Cc1ccc(NC(=O)N2CCSc3ncccc32)cc1)NCc1cccc(Cl)c1 -19.4%, Cc1ccc2c(=O)c(C(=O)c3ccc(Cl)cc3)cn(CC(=O)Nc3ccc4c(c3)OCCO4)c2n1 -20.4%, Cc1cccc(C(=O)NCc2nc3ccccc3n2Cc2ccccc2Cl)c1 -16.7%, CCOc1ccccc1CNC(=O)c1oc2c(c1C)-c1nn(Cc3cccc(Cl)c3)cc1CC2 -33.5%, Cc1ccc(NC(=O)C2CCCN2S(=O)(=O)c2cccc3cccnc23)c(C)c1 (stereo not given) -24.6%, O=C(Nc1cccc(OCc2cc(=O)n3ccccc3n2)c1)Nc1cccc(C(F)(F)F)c1 18.7%, COc1ccc(Cl)cc1C(=O)NCCS(=O)(=O)N1CCN(c2ccccc2OC)CC1 -23.6%, COc1cccc(NC(=O)Cn2c(=O)n(Cc3ccc(C(=O)NCc4ccc(C)cc4)cc3)c(=O)c3ccccc32)c1 -11.6%, CCOC(=O)c1c(C)n(-c2ccccc2)c2ccc(OC(=O)c3c(F)cccc3F)cc12 -22.6%, CCOc1ccc(Cn2c(CNS(=O)(=O)c3ccc(C(C)(C)C)cc3)nc3cccnc32)cc1 -20.7%, COc1ccc(CCNC(=O)C2c3ccccc3C(=O)N2Cc2ccccc2)cc1OC (stereo not given) -17.4%, COc1ccc(OC)c(CC2C(=O)Nc3ccc(Br)cc32)c1 (stereo not given) -51.2%, CCOC(=O)c1c(C)oc2ccc(N(C(C)=O)S(=O)(=O)c3c(C)cc(C)cc3C)cc12 -14.9%, COC(=O)c1cc2sccc2n1Cc1ccc(F)cc1Cl -12.6%, C[C@H](CCC(=O)O)[C@H]1CC[C@H]2[C@@H]3[C@H](O)C[C@@H]4C[C@H](O)CC[C@]4(C)[C@@H]3CC[C@]12C -26.3%, Cc1cc(N2CCN(c3cc(Cl)ccc3C)CC2)n2nc(-c3ccccc3)nc2n1 -14.5%, N#Cc1ccc(NC(=O)C2Cc3ccccc3CN2S(=O)(=O)c2ccc(F)cc2)cc1 (stereo not given) -39.3%, CCCCNC(=O)C1CCC(Cn2c(=O)c3sccc3n(CC(=O)Nc3ccccc3)c2=O)CC1 (stereo not given) -15.7%, O=C(COc1ccc(F)cc1)Nc1ccc2nc(SCCOc3ccccc3)sc2c1 -18%, COCCn1c(=N)c(C(=O)NC2CCCC2)cc2c(=O)n3cc(C)ccc3nc21 1.77%, O=C(Nc1ccccc1C(=O)OCc1cc(=O)n2ccsc2n1)c1ccccc1Cl 18.3%, CCN(CC)CCNC(=O)c1cn(CC)c2ccc(S(=O)(=O)N3CCc4ccccc4C3)cc2c1=O -10.8%, CCC(=O)N1CCc2cc(Br)cc(S(=O)(=O)CCC(=O)Nc3ccc(Cl)cc3)c21 11.9%, Cc1cccc(C)c1NC(=O)CCC(=O)N1Cc2ccccc2Oc2ncccc21 -14.4%, CCOC(=O)c1cc(-c2ccc(C)cc2)n(CCC(=O)NCCc2ccc(C)cc2)c1C -23.3%, COc1cc(-c2cc3n(C)c(C)c(CCC(=O)NC4CCCCC4)c(=O)n3n2)cc(OC)c1OC -11.6%, CCC(=O)N1CCc2cc(Br)cc(S(=O)(=O)N3CCN(c4cc(C)ccc4C)CC3)c21 -9.79%, COc1ccc(Oc2nc3c(c(=O)n(C)c(=O)n3C)n2Cc2ccc(Cl)cc2Cl)cc1 8.46%, CC(=O)N(CC(O)CO)c1c(I)c(C(=O)NCC(O)CO)c(I)c(C(=O)NCC(O)CO)c1I (stereo not given) -0.458%, O=C(NC1CCN(Cc2ccccc2)CC1)c1ccc(Cn2c(=O)c3ccccc3n(Cc3cccc(F)c3)c2=O)cc1 -19.1%, Cc1cccc(C)c1-n1ncc(C(=O)NCCN2CCN(C)CC2)c1C1CCN(C(=O)OC(C)(C)C)CC1 -3.58%, CCOc1ccc(C(=O)NCc2nc(-c3ccc(Cl)cc3)no2)cc1OCC 10.5%, CCOC(=O)c1cnc2ccc(OC)cc2c1Nc1cccc(C(C)=O)c1 -31.2%, CCN(Cc1ccccc1)S(=O)(=O)c1ccc(F)c(C(=O)Nc2cc(C)ccc2OC)c1 -22.8%, Cc1cccc(NC(=O)C2CCN(S(=O)(=O)c3c(C)noc3/C=C/c3ccco3)CC2)c1 -28.7%, Cc1ccccc1OCC(=O)Nc1ccc2nc(SCC(=O)N3CCOCC3)sc2c1 -22.2%, O=C(CN1C(=O)C2(SCC(=O)N2c2ccc(F)c(F)c2)c2ccccc21)Nc1cccc(Cl)c1 (stereo not given) -35.3%, CCOc1ccc(NC(=O)CCNS(=O)(=O)c2cccs2)cc1 8.55%, COc1c(C)cc(NS(=O)(=O)c2ccc3c(c2)OCCO3)cc1C -32.2%, COc1ccc(CNC(=O)C2CCN(C(=O)N3CCOc4ccc(Cl)cc43)CC2)cc1 -33.4%, Cc1ccc(C)c(S(=O)(=O)n2nc(C)c(S(=O)(=O)N3CCCCCC3)c2C)c1 -3.16%, COc1ccc(NC(=O)CCCN2C(=O)CCn3nc(-c4cn(C)c5ccccc45)cc32)cc1 -15.5%, Cc1cc(Nc2ccccc2O)nc(C)n1 1.48%, COc1cc(NC(=O)c2nnn(CC(=O)Nc3cc(C)ccc3C)c2N)cc(OC)c1 -16.5%, CCOc1cc(C(=O)Nc2ccc3c(c2)n(C)c(=O)c(=O)n3C)cc(OCC)c1OCC -12.7%, CCOc1ccc(-n2c(SCC(=O)Nc3ccc(CC)cc3)nc3c(oc4ccccc43)c2=O)cc1 -18%, CCOC(=O)CCc1c(C)nc2cc(-c3cc(OC)cc(OC)c3)[nH]n2c1=O -1.7%, Cc1nc2ccc(S(=O)(=O)N(CC(=O)Nc3ccc(F)cc3)Cc3ccccc3)cc2s1 -18.3%, COC(=O)c1sc2cccc(F)c2c1S(=O)(=O)N1CCN(c2cccc(C)c2)C(C)C1 (stereo not given) -17%, CC1CCc2c(sc(NC(=O)CCCOc3ccccc3)c2C(N)=O)C1 (stereo not given) -1.44%, CC(C)(C)OC(=O)N1CCC(c2c(C(=O)N3CCN(C(=O)c4ccco4)CC3)cnn2-c2ccc(F)cc2F)CC1 -18%, CCCOC(=O)c1c(NC(=O)c2cc3ccccc3c(=O)o2)sc2c1CCC(C)C2 (stereo not given) 1.25%, CCOc1ccc(-n2nc3ccc(NC(=O)Cc4ccccc4)cc3n2)cc1 -94.3%, COc1ccc(-c2cn3c(C)c(C(=O)Nc4cc(C)cc(C)c4)sc3n2)cc1 -8.22%, CCOC(=O)c1cnc2c(Cl)cc(Cl)cc2c1Nc1ccccc1OC -8.39%, COC(=O)c1ccc(Cn2nnc3c(=O)[nH]c(C4CCCN(S(=O)(=O)c5ccccc5Cl)C4)nc32)cc1 (stereo not given) 7.09%, Cc1ccc(-c2nnc3c4ccccc4c(C)nn23)cc1NC(=O)c1ccccc1 -3.94%, CCc1cccc(NC(=O)CN(C)S(=O)(=O)c2ccc3[nH]c4c(c3c2)CCCC4)c1 -27.1%, CCc1ccccc1-n1c(N)c(C(=O)OC)c2nc3ccccc3nc21 -30.1%, Cc1cc(-c2ccc(C)c(S(=O)(=O)N3CCOc4ccc(Cl)cc43)c2)on1 -34.6%, CCc1ccccc1NC(=O)Cn1c(=O)ccc2cc(S(=O)(=O)N3CCCC3)ccc21 -19.2%, CCCSc1ncc(Cl)c(C(=O)N(Cc2ccc(Cl)cc2)Cc2ccco2)n1 -42.4%, CCOC(=O)N1CCc2c(sc3c2c(=O)n(-c2ccc(CC)cc2)c(=O)n3C)C1 -0.751%, COc1ccc(OCc2ccc(-c3nc(C#N)c(N4CCCCC4)o3)o2)cc1 -30.2%, Cc1ccccc1OCC(=O)N1CCC(c2nc3ccccc3s2)CC1 -11.6%, COc1ccc(C(=O)c2c(N)c(C(=O)Nc3cccc(OC)c3)c3ccccn23)cc1 3.45%, Cc1c(C(=O)N(C)C)sc2c1c(=O)n(-c1ccc(Cl)cc1)c(=O)n2CC(=O)C(C)(C)C -9.8%, Cc1ccc(NC(=O)Cn2nc(N3CCN(c4ccccc4)CC3)ccc2=O)cc1F -19.7%, COc1ccc(-n2c(=O)c3sc4ccccc4c3n(Cc3ccccc3C)c2=O)cc1OC -4.8%
